# Measured values taken from the supplement of paper PMC8728848.
# This is one part of the list.
# Experiments:
# Test in all cases: glycan array binding signal (z-score within array); higher = stronger binding
# Settings in all cases: glycan notation: IUPAC condensed, linker removed
# [1] = target: GlcNAc(b1-3)Gal(b1-3)GalNAc
# In short: (§1)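 The binding signal is a Z-score computed within each array and averaged over linkers. Arrays of the same protein sequence at different concentrations or buffers were also averaged together. Data originate from 3228 arrays in the Consortium for Functional Glycomics database, kept only where the protein sequence was available.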
# [2] = target: GlcNAc(b1-3)Gal(b1-4)Glc
# In short: as §1
# [3] = target: GlcNAc(b1-3)Gal(b1-4)GlcNAc
# In short: as §1
# [4] = target: GlcNAc(b1-3)Gal(b1-4)GlcNAc(b1-2)Man(a1-3)[GlcNAc(b1-3)Gal(b1-4)GlcNAc(b1-2)Man(a1-6)]Man(b1-4)GlcNAc(b1-4)GlcNAc
# In short: as §1
# [5] = target: GlcNAc(b1-3)Gal(b1-4)GlcNAc(b1-2)Man(a1-3)[GlcNAc(b1-3)Gal(b1-4)GlcNAc(b1-2)Man(a1-6)]Man(b1-4)GlcNAc(b1-4)[Fuc(a1-6)]GlcNAc
# In short: as §1
# [6] = target: GlcNAc(b1-3)Gal(b1-4)GlcNAc(b1-2)[GlcNAc(b1-3)Gal(b1-4)GlcNAc(b1-6)]Man(a1-6)[GlcNAc(b1-3)Gal(b1-4)GlcNAc(b1-2)Man(a1-3)]Man(b1-4)GlcNAc(b1-4)GlcNAc
# In short: as §1
# [7] = target: GlcNAc(b1-3)Gal(b1-4)GlcNAc(b1-3)Gal(b1-4)GlcNAc
# In short: as §1
# [8] = target: GlcNAc(b1-3)Gal(b1-4)GlcNAc(b1-3)Gal(b1-4)GlcNAc(b1-2)Man(a1-3)[GlcNAc(b1-3)Gal(b1-4)GlcNAc(b1-3)Gal(b1-4)GlcNAc(b1-2)Man(a1-6)]Man(b1-4)GlcNAc(b1-4)GlcNAc
# In short: as §1
# [9] = target: GlcNAc(b1-3)Gal(b1-4)GlcNAc(b1-3)Gal(b1-4)GlcNAc(b1-2)Man(a1-3)[GlcNAc(b1-3)Gal(b1-4)GlcNAc(b1-3)Gal(b1-4)GlcNAc(b1-2)Man(a1-6)]Man(b1-4)GlcNAc(b1-4)[Fuc(a1-6)]GlcNAc
# In short: as §1
# [10] = target: GlcNAc(b1-3)Gal(b1-4)GlcNAc(b1-3)Gal(b1-4)GlcNAc(b1-2)[GlcNAc(b1-3)Gal(b1-4)GlcNAc(b1-3)Gal(b1-4)GlcNAc(b1-6)]Man(a1-6)[GlcNAc(b1-3)Gal(b1-4)GlcNAc(b1-3)Gal(b1-4)GlcNAc(b1-2)Man(a1-3)]Man(b1-4)GlcNAc(b1-4)[Fuc(a1-6)]GlcNAc
# In short: as §1
# [11] = target: GlcNAc(b1-3)Gal(b1-4)GlcNAc(b1-3)Gal(b1-4)GlcNAc(b1-3)Gal(b1-4)GlcNAc(b1-2)Man(a1-3)[GlcNAc(b1-3)Gal(b1-4)GlcNAc(b1-3)Gal(b1-4)GlcNAc(b1-3)Gal(b1-4)GlcNAc(b1-2)Man(a1-6)]Man(b1-4)GlcNAc(b1-4)GlcNAc
# In short: as §1
# [12] = target: GlcNAc(b1-3)Gal(b1-4)GlcNAc(b1-3)Gal(b1-4)GlcNAc(b1-3)Gal(b1-4)GlcNAc(b1-2)Man(a1-3)[GlcNAc(b1-3)Gal(b1-4)GlcNAc(b1-3)Gal(b1-4)GlcNAc(b1-3)Gal(b1-4)GlcNAc(b1-2)Man(a1-6)]Man(b1-4)GlcNAc(b1-4)[Fuc(a1-6)]GlcNAc
# In short: as §1
# [13] = target: GlcNAc(b1-3)Gal(b1-4)GlcNAc(b1-3)Gal(b1-4)GlcNAc(b1-3)Gal(b1-4)GlcNAc(b1-2)[GlcNAc(b1-3)Gal(b1-4)GlcNAc(b1-3)Gal(b1-4)GlcNAc(b1-3)Gal(b1-4)GlcNAc(b1-6)]Man(a1-6)[GlcNAc(b1-3)Gal(b1-4)GlcNAc(b1-3)Gal(b1-4)GlcNAc(b1-3)Gal(b1-4)GlcNAc(b1-2)Man(a1-3)]Man(b1-4)GlcNAc(b1-4)[Fuc(a1-6)]GlcNAc
# In short: as §1
# [14] = target: GlcNAc(b1-3)Gal(b1-4)GlcNAc(b1-3)Gal(b1-4)GlcNAc(b1-3)Gal(b1-4)GlcNAc(b1-3)Gal(b1-4)GlcNAc(b1-2)Man(a1-3)[GlcNAc(b1-3)Gal(b1-4)GlcNAc(b1-3)Gal(b1-4)GlcNAc(b1-3)Gal(b1-4)GlcNAc(b1-3)Gal(b1-4)GlcNAc(b1-2)Man(a1-6)]Man(b1-4)GlcNAc(b1-4)GlcNAc
# In short: as §1
# [15] = target: GlcNAc(b1-3)Gal(b1-4)GlcNAc(b1-3)Gal(b1-4)GlcNAc(b1-3)Gal(b1-4)GlcNAc(b1-3)Gal(b1-4)GlcNAc(b1-2)Man(a1-3)[GlcNAc(b1-3)Gal(b1-4)GlcNAc(b1-3)Gal(b1-4)GlcNAc(b1-3)Gal(b1-4)GlcNAc(b1-3)Gal(b1-4)GlcNAc(b1-2)Man(a1-6)]Man(b1-4)GlcNAc(b1-4)[Fuc(a1-6)]GlcNAc
# In short: as §1
# [16] = target: GlcNAc(b1-3)Gal(b1-4)GlcNAc(b1-3)Gal(b1-4)GlcNAc(b1-3)Gal(b1-4)GlcNAc(b1-3)Gal(b1-4)GlcNAc(b1-2)[GlcNAc(b1-3)Gal(b1-4)GlcNAc(b1-3)Gal(b1-4)GlcNAc(b1-3)Gal(b1-4)GlcNAc(b1-3)Gal(b1-4)GlcNAc(b1-6)]Man(a1-6)[GlcNAc(b1-3)Gal(b1-4)GlcNAc(b1-3)Gal(b1-4)GlcNAc(b1-3)Gal(b1-4)GlcNAc(b1-3)Gal(b1-4)GlcNAc(b1-2)Man(a1-3)]Man(b1-4)GlcNAc(b1-4)[Fuc(a1-6)]GlcNAc
# In short: as §1
# [17] = target: GlcNAc(b1-3)Gal(b1-4)GlcNAc(b1-3)Gal(b1-4)GlcNAc(b1-3)GalNAc
# In short: as §1
# [18] = target: GlcNAc(b1-3)Gal(b1-4)GlcNAc(b1-3)GalNAc
# In short: as §1
# [19] = target: GlcNAc(b1-3)Gal(b1-4)GlcNAc(b1-3)[GlcNAc(b1-3)Gal(b1-4)GlcNAc(b1-3)]GalNAc
# In short: as §1
# [20] = target: GlcNAc(b1-3)Gal(b1-4)GlcNAc(b1-6)[Gal(b1-3)]GalNAc
# In short: as §1
# [21] = target: GlcNAc(b1-3)Gal(b1-4)GlcNAc(b1-6)[GlcNAc(b1-3)Gal(b1-3)]GalNAc
# In short: as §1
# [22] = target: GlcNAc(b1-3)Gal(b1-4)GlcNAc(b1-6)[GlcNAc(b1-3)]Gal(b1-4)GlcNAc
# In short: as §1
# [23] = target: GlcNAc(b1-3)GalNAc
# In short: as §1
# [24] = target: GlcNAc(b1-3)Man
# In short: as §1
# [25] = target: GlcNAc(b1-3)[GlcNAc(b1-4)][GlcNAc(b1-6)]GlcNAc
# In short: as §1
# [26] = target: GlcNAc(b1-3)[GlcNAc(b1-6)]Gal(b1-4)GlcNAc
# In short: as §1
# [27] = target: GlcNAc(b1-3)[GlcNAc(b1-6)]GalNAc
# In short: as §1
# [28] = target: GlcNAc(b1-4)Gal(b1-4)GlcNAc
# In short: as §1
# [29] = target: GlcNAc(b1-4)GlcNAc
# In short: as §1
# [30] = target: GlcNAc(b1-4)GlcNAc(b1-4)GlcNAc
# In short: as §1
# [31] = target: GlcNAc(b1-4)GlcNAc(b1-4)GlcNAc(b1-4)GlcNAc(b1-4)GlcNAc
# In short: as §1
# [32] = target: GlcNAc(b1-4)GlcNAc(b1-4)GlcNAc(b1-4)GlcNAc(b1-4)GlcNAc(b1-4)GlcNAc
# In short: as §1
# [33] = target: GlcNAc(b1-4)[GlcNAc(b1-6)]GalNAc
# In short: as §1
# [34] = target: GlcNAc(b1-6)Gal(b1-4)GlcNAc
# In short: as §1
# [35] = target: GlcNAc(b1-6)GalNAc
# In short: as §1
# [36] = target: GlcNAc6S(b1-3)Gal(b1-4)GlcNAc
# In short: as §1
# [37] = target: Kdn(a2-3)Gal(b1-3)GalNAc
# In short: as §1
binder,measurement,setting,value
"Epa6 (Candida glabrata), Q6DTM7_CANGB (protein) MGSSHHHHHHSSGLVPRGSHMKDDYSSSLSNNNLGWTDPTEFPLGCSPNVTTPKNGLSMELYSYDYLKSGSNPCWDAAYLDPNYPRTGYKSHRLLAKVENVAGNINFYYHAPMGCTSLFDTLPQAYNYRTPLTMTNFTMLLYGYFKPKVTGYHTFTISADDLLFVNFGAGNAFDCCKRESSADDFGNYQAYAVWGSQTAKDDLTVHLDAGLYYPIRIFFNNRDNDGALSLTLKTESDPNPVIDFSDYFYSFDDTKDGCPGLVSYDTS",glycan array binding signal (z-score),[1],-0.273
same,glycan array binding signal (z-score),[2],-0.339
same,glycan array binding signal (z-score),[3],-0.254
same,glycan array binding signal (z-score),[4],-0.319
same,glycan array binding signal (z-score),[5],-0.272
same,glycan array binding signal (z-score),[6],-0.167
same,glycan array binding signal (z-score),[7],-0.334
same,glycan array binding signal (z-score),[8],-0.222
same,glycan array binding signal (z-score),[9],-0.255
same,glycan array binding signal (z-score),[10],-0.136
same,glycan array binding signal (z-score),[11],-0.218
same,glycan array binding signal (z-score),[12],-0.212
same,glycan array binding signal (z-score),[13],-0.262
same,glycan array binding signal (z-score),[14],-0.253
same,glycan array binding signal (z-score),[15],-0.252
same,glycan array binding signal (z-score),[16],-0.28
same,glycan array binding signal (z-score),[17],-0.287
same,glycan array binding signal (z-score),[18],-0.342
same,glycan array binding signal (z-score),[19],-0.306
same,glycan array binding signal (z-score),[20],0.28
same,glycan array binding signal (z-score),[21],-0.266
same,glycan array binding signal (z-score),[22],-0.323
same,glycan array binding signal (z-score),[23],-0.306
same,glycan array binding signal (z-score),[24],-0.263
same,glycan array binding signal (z-score),[25],-0.315
same,glycan array binding signal (z-score),[26],-0.331
same,glycan array binding signal (z-score),[27],-0.274
same,glycan array binding signal (z-score),[28],-0.357
same,glycan array binding signal (z-score),[29],-0.312
same,glycan array binding signal (z-score),[30],-0.334
same,glycan array binding signal (z-score),[31],-0.283
same,glycan array binding signal (z-score),[32],-0.277
same,glycan array binding signal (z-score),[33],-0.349
same,glycan array binding signal (z-score),[34],-0.097
same,glycan array binding signal (z-score),[35],-0.302
same,glycan array binding signal (z-score),[36],-0.064
same,glycan array binding signal (z-score),[37],-0.212
